In PubChem BioAssay AID686978 (National Center for Advancing Translational Sciences (NCATS), 2013):
The whole screen tested about 420,000 compounds, of which about 64,000 (15%) were called active. Inconclusive means that the source gave no clear call. Such entries were picked first, then a sample of the others. The call rests on the fitted dose curve; in most records, active means well fitted inhibition curve with a large enough effect; inconclusive means small, poorly fitted or top-dose-only effect; inactive means flat fitted curve, though single readings scatter. Potencies of inconclusive entries are left out as doubtful fits.

Assay: qHTS for Inhibitors of human tyrosyl-DNA phosphodiesterase 1 (TDP1): qHTS in cells in absence of CPT; further: nearly all actives have a fitted effect of over 55% in size
Conditions: DT40 Tdp1-/- hTDP1 cells, no CPT, ATP luminescence, 48 h; activity change, negative = growth inhibition: at 46.2 µM (top of the series) unless noted
Outline: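 Readout: luminescence from CellTiter-Glo after 30 min in the dark at RT. Cells: DT40 Tdp1-/- with stable hTDP1, 400/well. Exposure: compounds alone, ≥48 hr, 37 °C.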
On the % scale 0 is the no-effect control and ±100 the full control effect; potency means the concentration at half of the fitted maximal effect; tags describe the fitted curve by direction and shape.

Q: With `COc1ccc(CC2CCOC2=O)cc1` (centres undefined) as the compound, how does the activity change, negative = growth inhibition read?
A: inconclusive: -22.5% [inhibitor]

Q: With `NC(N)=N/N=C/c1ccc(OCc2ccc(Cl)cc2Cl)cc1` as the compound, how does the Potency read?
A: inconclusive [inhibitor, single point]

Q: For `Cn1cc(C(=O)c2ccc(Cl)cc2Cl)cc1C(=O)N/N=C(\N)COc1ccc(Cl)cc1Cl`, which Potency is on record?
A: inconclusive [inhibitor, single point]

Q: With `COc1ccc(CNCc2cccc(C)c2)cc1` as the compound, how does the Potency read?
A: inconclusive [inhibitor, single point]

Q: Which Potency does the source give for `COc1ccc(C2=CC(=O)CC(c3ccc(OC)cc3)C2)cc1` (centres undefined) here?
A: inconclusive [inhibitor, partial curve]

Q: For `COc1cccc(C2c3[nH]c4ccccc4c3CCN2Cc2cccc(C)n2)c1` (centres undefined), which Potency is on record?
A: inconclusive [inhibitor, single point]

Q: For `Cn1nc(-c2ccc(C(=O)Nc3ccc(F)cc3)cc2)c2ccccc2c1=O`, which Potency is on record?
A: inconclusive [inhibitor, single point]

Q: Which Potency does the source give for `COCCCNC(=O)CCCCn1c(=O)c2ccccc2n(CC(=O)Nc2ccc(C)cc2C)c1=O` here?
A: inactive

Q: For `Oc1ccc(C[C@H]2CNC(=S)N2CCc2cc(C(F)(F)F)cc(C(F)(F)F)c2)cc1`, which Potency is on record?
A: inconclusive [inhibitor, single point]

Q: For `C=Cc1ccc(Cn2nc(-c3ccc(C)c(S(=O)(=O)N(CC)CC)c3)ccc2=O)cc1`, which Potency is on record?
A: inconclusive [inhibitor, single point]

Q: With `CCOCCCn1c(SCC(=O)Nc2ccc(NC(C)=O)cc2)nc2ccccc2c1=O` as the compound, how does the Potency read?
A: inactive

Q: With `COc1ccc(CCN(C)C(=O)CSc2nc3ccccc3c(=O)n2CC2CCCO2)cc1OC` (centres undefined) as the compound, how does the Potency read?
A: inconclusive [inhibitor, single point]

Q: For `CCOC(=O)C(C)Oc1cccc2c(=O)n(CC(=O)NCc3ccc(F)cc3)ccc12` (centres undefined), which Potency is on record?
A: active: 0.731 µM

Q: Which Potency does the source give for `Cc1ccc2nc(SCc3nnc(-c4ccccc4[N+](=O)[O-])o3)c(C#N)cc2c1` here?
A: inconclusive [inhibitor, partial curve]

Q: With `O=C1NC(=O)C2(COC(c3ccncc3)OC2)S1` (centres undefined) as the compound, how does the Potency read?
A: inactive

Q: With `CCC(C)Sc1nnc(CNC(=O)C23CC4CC(CC(C4)C2)C3)n1C1CCCCC1` (centres undefined) as the compound, how does the Potency read?
A: inconclusive [inhibitor, single point]

Q: For `CCOc1ccccc1NC(=O)Cn1nnc2sc(-c3ccccc3)cc2c1=O`, which Potency is on record?
A: inconclusive [inhibitor, partial curve]

Q: With `Cn1c(=O)c2cn3c(c2n(C)c1=O)C(c1ccccc1)CC(c1ccccc1)=N3` (centres undefined) as the compound, how does the Potency read?
A: inconclusive [inhibitor, single point]

Q: Which Potency does the source give for `O=C(CN1C(=O)c2cccc3cccc1c23)N1CCN(c2ccccc2)CC1` here?
A: inactive

Q: Which Potency does the source give for `COc1ccc(OC)c(NC(=O)c2ccc(NS(C)(=O)=O)cc2)c1` here?
A: inactive

Q: Which Potency does the source give for `COc1ccc(CNC(=O)c2ccc3c(c2)nc2n3CCC(C)C2)c(OC)c1` (centres undefined) here?
A: inconclusive [inhibitor, full curve, poor fit]

Q: Which Potency does the source give for `Cc1cc(CNC(=O)CC2C(=O)NCCN2CC(C)(C)C)nn1C` (centres undefined) here?
A: inactive

Q: Which Potency does the source give for `COC(=O)CCC(C)C1CCC2C3C(OC(C)=O)CC4CC(O)CCC4(C)C3CC(O)C12C` (centres undefined) here?
A: active: 16.4 µM

Q: Which Potency does the source give for `CCc1ccccc1NC(=O)Nc1cc(C(=O)NCc2ccc(C)cc2)ccc1N1CCCC1` here?
A: inconclusive [inhibitor, partial curve, poor fit]

Q: With `CCCC#Cc1cnc2c(c1)C(=O)N([C@H](C)CO)C[C@@H](C)[C@@H](CN(C)C(=O)Nc1cccc(F)c1)O2` as the compound, how does the Potency read?
A: inconclusive [inhibitor, single point]

Q: With `CCOc1ccccc1NC(=O)c1c(NC(=O)c2cccc(C)c2)sc2c1CCCC2` as the compound, how does the Potency read?
A: active: 23.1 µM

Q: For `COc1ccc2cc(C(=O)C3CCCN(Cc4ccccn4)C3)ccc2c1` (centres undefined), which Potency is on record?
A: active: 18.4 µM

Q: With `COc1cc([C@H]2[C@@H]3CCCC[C@]3(O)CCN2CC(=O)Nc2ccc(C)cc2C)ccc1O` as the compound, how does the Potency read?
A: inconclusive [inhibitor, single point]

Q: For `COc1ccc(OCc2cc(=O)[nH]c3ccccc23)cc1`, which Potency is on record?
A: inactive

Q: Which Potency does the source give for `Cc1ccc(-c2onc3ccc(C(=O)O)cc23)cc1` here?
A: inactive

Q: With `CC(C)NC(=S)NC(=O)c1ccc(Cl)cc1Cl` as the compound, how does the Potency read?
A: inconclusive [inhibitor, single point]

Q: Which Potency does the source give for `CN(CC(=O)Nc1ccccc1Cl)C(=O)CSc1nncn1C` here?
A: inactive

Q: Which Potency does the source give for `CCN(CC)C(=S)Sc1c(-c2ccccc2)c2cc(Cl)ccc2[nH]c1=O` here?
A: inconclusive [inhibitor, single point]

Q: For `Cn1cc([C@@H]2C[C@H]3CN(C4CCCC4)C(=O)[C@]34CCCN24)c(-c2ccccc2)n1`, which Potency is on record?
A: inactive

Q: For `COc1cccc(N2CCN(c3ccc4nnc(CCC(=O)Nc5ccccc5OC)n4n3)CC2)c1`, which Potency is on record?
A: inconclusive [inhibitor, single point]

Q: For `CCOC(=O)C1=C(C)NC(C)=C(C(=O)OCC)C1C(=O)OCC(=O)NCc1ccccc1OC`, which Potency is on record?
A: inconclusive [inhibitor, single point]

Q: With `CC1(C)CC(=O)c2cnc(NCc3ccco3)nc2C1` as the compound, how does the Potency read?
A: inconclusive [inhibitor, partial curve, poor fit]

Q: Which Potency does the source give for `CN1CCN(CC(=O)c2cc(C(C)(C)C)c(O)c(C(C)(C)C)c2)CC1` here?
A: inactive

Q: With `CC1(C)Cc2c(C#N)c(N3CCOCC3)nc(-c3ccccc3)c2CO1` as the compound, how does the Potency read?
A: inconclusive [inhibitor, single point]

Q: For `S=C(Nc1cccnc1)Nc1ccccc1Br`, which Potency is on record?
A: inactive

Q: For `c1ccc(COCCCn2cc(-c3ccccc3)nn2)cc1`, which Potency is on record?
A: inconclusive [inhibitor, single point]

Q: For `Cc1nn(Cc2ccccc2)c(C)c1NC(=O)c1cc(-c2cccs2)on1`, which Potency is on record?
A: inconclusive [inhibitor, single point]

Q: Which Potency does the source give for `CCCn1c2ccccc2c2nnc(SCC(=O)Nc3ncccn3)nc21` here?
A: inconclusive [inhibitor, partial curve]

Q: Which Potency does the source give for `COc1cc2c(cc1OC)C(c1ccccc1)N(C(=O)c1ccccc1)CC2` (centres undefined) here?
A: inconclusive [inhibitor, single point]
